Results as given in patent US20230250147A1 (Sanofi, published 2023).

T1: Mouse GLP-1R (mouse, UniProt O35659 22-463)
T1 sequence (looked up): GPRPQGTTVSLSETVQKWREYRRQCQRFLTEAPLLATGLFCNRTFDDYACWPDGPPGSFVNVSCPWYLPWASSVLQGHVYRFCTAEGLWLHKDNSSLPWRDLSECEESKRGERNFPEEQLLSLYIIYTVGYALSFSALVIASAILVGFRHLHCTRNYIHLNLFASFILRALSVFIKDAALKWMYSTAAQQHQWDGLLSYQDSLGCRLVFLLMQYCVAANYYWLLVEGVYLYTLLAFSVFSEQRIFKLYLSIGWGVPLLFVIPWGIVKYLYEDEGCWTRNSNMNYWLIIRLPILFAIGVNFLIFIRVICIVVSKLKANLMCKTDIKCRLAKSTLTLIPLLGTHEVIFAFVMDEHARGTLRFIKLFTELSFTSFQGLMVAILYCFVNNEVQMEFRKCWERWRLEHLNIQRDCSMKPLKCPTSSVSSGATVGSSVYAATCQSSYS

B1: GLP-1RA/FGF21 Fc fusion protein SEQ ID NO: 72 (Fc fusion)
chain: HGEGTFTSDKSKQLEKRLFRLFIEWLIAGGHSSGKPPPKGGGGGGGSGGGGSGGGGSA[… human IgG4 Fc with changes …]GGGSGSAHPIPDSSPLLQFGGQVRQRYLYTDDACQTEAHLEIREDGTVGGAADQSPESLLQLKALKPGVIQILGVKTSRFLCQRPDGALYGSLHFDPEACSFRELLLEDGYNVYQSEAHGLPLHLPGCKSPHRDPAPRGPARFLPLPGLPPAPPEPPGILAPQPPDVGSSDPLSMVGSQGRSPSYAS
B2: GLP-1RA/FGF21 Fc fusion protein SEQ ID NO: 82 (Fc fusion)
chain: HGEGTFTSDKSKQLEKRLVRLFIELLIAGGHSSGKPPPKGGGGGGGSGGGGSGGGGSA[… human IgG4 Fc with changes …]GGGSGSAHPIPDSSPLLQFGGQVRQRYLYTDDACQTEAHLEIREDGTVGGAADQSPESLLQLKALKPGVIQILGVKTSRFLCQRPDGALYGSLHFDPEACSFRELLLEDGYNVYQSEAHGLPLHLPGCKSPHRDPAPRGPARFLPLPGLPPAPPEPPGILAPQPPDVGSSDPLSMVGSQGRSPSYAS
B3: GLP-1RA/FGF21 Fc fusion protein SEQ ID NO: 78 (Fc fusion)
chain: HGEGTFTSDKSKQLEKRLVRLFYEWLIAGGHSSGKPPPKGGGGGGGSGGGGSGGGGSA[… human IgG4 Fc with changes …]GGGSGSAHPIPDSSPLLQFGGQVRQRYLYTDDACQTEAHLEIREDGTVGGAADQSPESLLQLKALKPGVIQILGVKTSRFLCQRPDGALYGSLHFDPEACSFRELLLEDGYNVYQSEAHGLPLHLPGCKSPHRDPAPRGPARFLPLPGLPPAPPEPPGILAPQPPDVGSSDPLSMVGSQGRSPSYAS
B4: GLP-1RA/FGF21 Fc fusion protein SEQ ID NO: 164 (Fc fusion)
chain: HSEGTFTSDKSKQLAKRLVRLFIEWLIKGGHSSGKPPPKGGGGGGGSGGGGSGGGGSA[… human IgG4 Fc with changes …]GGGSGSAHPIPDSSPLLQFGGQVRQRYLYTDDACQTEAHLEIREDGTVGGAADQSPESLLQLKALKPGVIQILGVKTSRFLCQRPDGALYGSLHFDPEACSFRELLLEDGYNVYQSEAHGLPLHLPGCKSPHRDPAPRGPARFLPLPGLPPAPPEPPGILAPQPPDVGSSDPLSMVGSQGRSPSYAS
B5: GLP-1RA/FGF21 Fc fusion protein SEQ ID NO: 190 (Fc fusion)
chain: HGEGTFTSDKSKQLEKELVRLFYEWLKAGGHSKQKPPPKGGGGGGGSGGGGSGGGGSA[… human IgG4 Fc with changes …]GGGSGSAHPIPDSSPLLQFGGQVRQRYLYTDDACQTEAHLEIREDGTVGGAADQSPESLLQLKALKPGVIQILGVKTSRFLCQRPDGALYGSLHFDPEACSFRELLLEDGYNVYQSEAHGLPLHLPGCKSPHRDPAPRGPARFLPLPGLPPAPPEPPGILAPQPPDVGSSDPLSMVGSQGRSPSYAS
B6: GLP-1RA/FGF21 Fc fusion protein SEQ ID NO: 200 (Fc fusion)
chain: HGEGTFTSDLSKQLEKELVRLFYEWLIKGGHSSGRPPPKGGGGGGGSGGGGSGGGGSA[… human IgG4 Fc with changes …]GGGSGSAHPIPDSSPLLQFGGQVRQRYLYTDDACQTEAHLEIREDGTVGGAADQSPESLLQLKALKPGVIQILGVKTSRFLCQRPDGALYGSLHFDPEACSFRELLLEDGYNVYQSEAHGLPLHLPGCKSPHRDPAPRGPARFLPLPGLPPAPPEPPGILAPQPPDVGSSDPLSMVGSQGRSPSYAS
B7: GLP-1RA/FGF21 Fc fusion protein SEQ ID NO: 65 (Fc fusion)
chain: HGEGTFTSDKSKQLAKRLVRLFIEWLIKGGHSSGKPPPKGGGGGGGSGGGGSGGGGSA[… human IgG4 Fc with changes …]GGGSGSAHPIPDSSPLLQFGGQVRQRYLYTDDACQTEAHLEIREDGTVGGAADQSPESLLQLKALKPGVIQILGVKTSRFLCQRPDGALYGSLHFDPEACSFRELLLEDGYNVYQSEAHGLPLHLPGCKSPHRDPAPRGPARFLPLPGLPPAPPEPPGILAPQPPDVGSSDPLSMVGSQGRSPSYAS
B8: GLP-1RA/FGF21 Fc fusion protein SEQ ID NO: 196 (Fc fusion)
chain: HGEGTFTSDLSKQLEKELVRLFYEWLINGGPSSGKPPPKGGGGGGGSGGGGSGGGGSA[… human IgG4 Fc with changes …]GGGSGSAHPIPDSSPLLQFGGQVRQRYLYTDDACQTEAHLEIREDGTVGGAADQSPESLLQLKALKPGVIQILGVKTSRFLCQRPDGALYGSLHFDPEACSFRELLLEDGYNVYQSEAHGLPLHLPGCKSPHRDPAPRGPARFLPLPGLPPAPPEPPGILAPQPPDVGSSDPLSMVGSQGRSPSYAS
B9: GLP-1RA/FGF21 Fc fusion protein SEQ ID NO: 80 (Fc fusion)
chain: HGEGTFTSDKSKQLEKRLVRLFILWLIAGGHSSGKPPPKGGGGGGGSGGGGSGGGGSA[… human IgG4 Fc with changes …]GGGSGSAHPIPDSSPLLQFGGQVRQRYLYTDDACQTEAHLEIREDGTVGGAADQSPESLLQLKALKPGVIQILGVKTSRFLCQRPDGALYGSLHFDPEACSFRELLLEDGYNVYQSEAHGLPLHLPGCKSPHRDPAPRGPARFLPLPGLPPAPPEPPGILAPQPPDVGSSDPLSMVGSQGRSPSYAS
B10: GLP-1RA/FGF21 Fc fusion protein SEQ ID NO: 188 (Fc fusion)
chain: HGEGTFTSDLSIQLAKRLAQLFIEWLIKGGHSSGKPPPKGGGGGGGSGGGGSGGGGSA[… human IgG4 Fc with changes …]GGGSGSAHPIPDSSPLLQFGGQVRQRYLYTDDACQTEAHLEIREDGTVGGAADQSPESLLQLKALKPGVIQILGVKTSRFLCQRPDGALYGSLHFDPEACSFRELLLEDGYNVYQSEAHGLPLHLPGCKSPHRDPAPRGPARFLPLPGLPPAPPEPPGILAPQPPDVGSSDPLSMVGSQGRSPSYAS
B11: GLP-1RA/FGF21 Fc fusion protein SEQ ID NO: 79 (Fc fusion)
chain: HGEGTFTSDKSKQLEKRLVRLFFEWLIAGGHSSGKPPPKGGGGGGGSGGGGSGGGGSA[… human IgG4 Fc with changes …]GGGSGSAHPIPDSSPLLQFGGQVRQRYLYTDDACQTEAHLEIREDGTVGGAADQSPESLLQLKALKPGVIQILGVKTSRFLCQRPDGALYGSLHFDPEACSFRELLLEDGYNVYQSEAHGLPLHLPGCKSPHRDPAPRGPARFLPLPGLPPAPPEPPGILAPQPPDVGSSDPLSMVGSQGRSPSYAS
B12: GLP-1RA/FGF21 Fc fusion protein SEQ ID NO: 59 (Fc fusion)
chain: YGEGTFTSDKSKLLEKRLAHLFIEWLIAGGHSSGKPPPKGGGGGGGSGGGGSGGGGSA[… human IgG4 Fc with changes …]GGGSGSAHPIPDSSPLLQFGGQVRQRYLYTDDACQTEAHLEIREDGTVGGAADQSPESLLQLKALKPGVIQILGVKTSRFLCQRPDGALYGSLHFDPEACSFRELLLEDGYNVYQSEAHGLPLHLPGCKSPHRDPAPRGPARFLPLPGLPPAPPEPPGILAPQPPDVGSSDPLSMVGSQGRSPSYAS
B13: GLP-1RA/FGF21 Fc fusion protein SEQ ID NO: 197 (Fc fusion)
chain: HGEGTFTSDLSKQLEKELVRLFYEWLINGGHSSGKPPPKGGGGGGGSGGGGSGGGGSA[… human IgG4 Fc with changes …]GGGSGSAHPIPDSSPLLQFGGQVRQRYLYTDDACQTEAHLEIREDGTVGGAADQSPESLLQLKALKPGVIQILGVKTSRFLCQRPDGALYGSLHFDPEACSFRELLLEDGYNVYQSEAHGLPLHLPGCKSPHRDPAPRGPARFLPLPGLPPAPPEPPGILAPQPPDVGSSDPLSMVGSQGRSPSYAS
B14: GLP-1RA/FGF21 Fc fusion protein SEQ ID NO: 67 (Fc fusion)
chain: GHGEGTFTSDLSIQLEEEAVRLFIEWLLAGGPSSGKPPPKGGGGGGGSGGGGSGGGGSA[… human IgG4 Fc with changes …]GGGSGSAHPIPDSSPLLQFGGQVRQRYLYTDDACQTEAHLEIREDGTVGGAADQSPESLLQLKALKPGVIQILGVKTSRFLCQRPDGALYGSLHFDPEACSFRELLLEDGYNVYQSEAHGLPLHLPGCKSPHRDPAPRGPARFLPLPGLPPAPPEPPGILAPQPPDVGSSDPLSMVGSQGRSPSYAS
B15: GLP-1RA/FGF21 Fc fusion protein SEQ ID NO: 69 (Fc fusion)
chain: GHGEGTFTSDLSIQLEEEAVRLFIEWLLAGGPSSGKPKPKGGGGGGGSGGGGSGGGGSA[… human IgG4 Fc with changes …]GGGSGSAHPIPDSSPLLQFGGQVRQRYLYTDDACQTEAHLEIREDGTVGGAADQSPESLLQLKALKPGVIQILGVKTSRFLCQRPDGALYGSLHFDPEACSFRELLLEDGYNVYQSEAHGLPLHLPGCKSPHRDPAPRGPARFLPLPGLPPAPPEPPGILAPQPPDVGSSDPLSMVGSQGRSPSYAS
B16: GLP-1RA/FGF21 Fc fusion protein SEQ ID NO: 68 (Fc fusion)
chain: GHGEGTFTSDLSIQLEEEAVRLFIEWLLAGGPSKGKPPPKGGGGGGGSGGGGSGGGGSA[… human IgG4 Fc with changes …]GGGSGSAHPIPDSSPLLQFGGQVRQRYLYTDDACQTEAHLEIREDGTVGGAADQSPESLLQLKALKPGVIQILGVKTSRFLCQRPDGALYGSLHFDPEACSFRELLLEDGYNVYQSEAHGLPLHLPGCKSPHRDPAPRGPARFLPLPGLPPAPPEPPGILAPQPPDVGSSDPLSMVGSQGRSPSYAS
B17: GLP-1RA/FGF21 Fc fusion protein SEQ ID NO: 70 (Fc fusion)
chain: GHGEGTFTSDLSIQLEEEAVRLFIEWLLAKGKSKGKPKPKGGGGGGGSGGGGSGGGGSA[… human IgG4 Fc with changes …]GGGSGSAHPIPDSSPLLQFGGQVRQRYLYTDDACQTEAHLEIREDGTVGGAADQSPESLLQLKALKPGVIQILGVKTSRFLCQRPDGALYGSLHFDPEACSFRELLLEDGYNVYQSEAHGLPLHLPGCKSPHRDPAPRGPARFLPLPGLPPAPPEPPGILAPQPPDVGSSDPLSMVGSQGRSPSYAS

Experiments:
Assay in all cases: cell-based or functional assay
[1] = target: human glucagon-like peptide-1 (GLP-1) receptor (human, UniProt P43220 24-463)
[2] = target: T1, Mouse GLP-1R
[3] = target: Monkey GLP-1R (monkey)

Binder	HTRF cAMP EC50 [1]	HTRF cAMP EC50 [2]	HTRF cAMP EC50 [3]
B1	0.0204 nM	0.0775 nM	0.025 nM
B2	0.0901 nM	0.0725 nM	0.109 nM
B3	0.051 nM	0.323 nM	0.0525 nM
B4	0.103 nM	0.088 nM	0.141 nM
B5	0.152 nM	0.479 nM	0.239 nM
B6	0.0731 nM	0.0462 nM	0.111 nM
B7	0.0165 nM	0.00663 nM	0.0102 nM
B8	0.0753 nM	0.0317 nM	0.127 nM
B9	0.0486 nM	0.0644 nM	0.0425 nM
B10	0.0597 nM	0.071 nM	0.0637 nM
B11	0.243 nM	2.51 nM	0.296 nM
B12	0.0136 nM	0.0135 nM	0.0103 nM
B13	0.0683 nM	0.048 nM	0.102 nM
B14	0.0365 nM	0.0102 nM	0.0216 nM
B15	0.0153 nM	0.0173 nM	0.0147 nM
B16	0.0167 nM	0.00942 nM	0.0108 nM
B17	0.0414 nM	0.0831 nM	0.0388 nM
